This passage reports self-cleavage results from the RNAGym collection of RNA variant scans (doi:10.1093/nar/gkz1192).

B1: CPEB3 Ribozyme (parent)
chain: UAACAGGGGGCCACAGCAGAAGCGUUCACGUCGCAGCCCCUGUCAGAUUCUGGUGAAUCUGCGAAUUCUGCUGUAUAUCUC

The source gives no read counts; variants with many changes may rest on few reads.

This data set covers variants of B1. As to the kind of experiment: self-cleavage, relative activity (ratio to wild type); higher = more cleavage; in vitro, sequencing. The procedure, abridged: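 CPEB3 self-cleaving ribozyme mutant libraries were made by rounds of error-prone PCR, barcoded, and transcribed in vitro with T7 RNA polymerase for 5 hours at 37°C. Cleavage occurred during transcription and a 15 min DNase I step before EDTA stop. RNAs were reverse transcribed with template switching and Illumina-sequenced, with DNA sequencing mapping barcodes to variants. Relative activity is the variant's cleaved/total read fraction divided by wild type's (minimum 5 reads), averaged across three batches.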
Take UAACAGGGGACCACAGCAGAAGCGUUCGCGUCGCAGCCCCUGUCAGAUUUUGGUGAAUCUGCGUAUUCUGCUGUAUAUCCC [G10A A28G C50U A64U U80C]: the self-cleavage was 0.33.

Regarding UAACAGGGGACCACAGCAGAAGCGCUCACGUCGCAGCCCCUGUCAGAUUCUGGUGAGUCUGCGAAUUCUGCUGCAUAUCUC [G10A U25C A57G U74C], the self-cleavage is 0.17.

On to UAACAGGGGACCACAGCAGAAGCGUUCACGUCGCAGCCCCUGUCAGAUUCUGGUGAGGCUGCGAAUUCUGCUGUAUAUCUC [G10A A57G U58G], for which the self-cleavage stood at 0.17.

Turning to UAACAGGGGAUCACAGCAGAAGCGUUCACGUCGGAGCCCCUGUCAGAUUCUGGAGAGUCUGCGAAUUCUGCAGUAUAUCUC [G10A C11U C34G U54A A57G U72A], the self-cleavage was determined as 0.04.

For UAACAGGGGACCAUAGCUGAAGCGUUCGCGUCGCAGCCCCCGUCAGAUUCUGGUGAAUCUGCGAAUUCUGCUGUAUAUCUC [G10A C14U A18U A28G U41C], the self-cleavage came out at 0.05.

For the variant UAACAGGGGACCACAGCAGAAACGUUCGCGUCGCAGCCCUUGUCAGAUUCUGAUGAAUCAGCGAAUUCUGCUGUAUAUCUC [G10A G22A A28G C40U G53A U60A], the self-cleavage was determined as 0.04.

Consider UAACAGGGGACCACAGCAGAAGCGUUCACGUCGCAGCCCCUGUCAGAUUCUGGUGAAUCUGAGAGUUCUGCUGUAUUACUC [G10A C62A A65G A77U U78A], for which the self-cleavage was 0.03.

Turning to UAACAGGGGACCACAGCAGAAGCGUUCUCGUCGCUGCCCCUGUCAGAUUCUGGUGAGUCUGCGAAUUCUGCUGUAUAUCUC [G10A A28U A35U A57G], the self-cleavage amounted to 0.05.

Turning to UAACAGGGGACCACAGCAGAGGCGUUCACGUCGCAGCCCCUGUCAGAUUCUGGUGAAUCUGCGAAAUCUGCUGUAUAUCUC [G10A A21G U66A], the self-cleavage was 0.28.

Take UAACAGGGGACCACAGCAGAAGCGCUCACGUCGCAGCCCCUGUCAGAUUCUGGUGAAUCUGCGAAUUCCGCUGCAUAUCAC [G10A U25C U69C U74C U80A]: the self-cleavage was found to be 0.13.

For the variant UAACAGGGGACCACAGCAGAAGCGACCACGUCGCUGCCCCUGUCAGAUUCUGGUGAAUCUGCGAAUUCUGCUGUAUAUCUC [G10A U25A U26C A35U], the self-cleavage worked out at 0.04.

UAACAGGGGACCACAGCAGAAGCGUUCACGUCGCAGCCCCUGUUAGGUCCUGGUGAAUCUGCGAGCUCUGCUGUAUAUCUC [G10A C44U A47G U49C A65G U66C]: the self-cleavage was determined as 0.04.

Take UAACAGGGGACCACAGCAGAAGCGUUCACGCCGCAGCCCCUGUCGGAUUCUGGUGAAUCUGCGAAUUCUGCUGUAUUUCUC [G10A U31C A45G A77U]: the self-cleavage came to 0.19.

Take UAACAGGGGACCACAGCAGAGGCGUUCACGUCGCAGCCCCUGUCAGAUCCUGGUGAAUCUGCGAAUACCGCUGUAUACCUC [G10A A21G U49C U67A U69C U78C]: the self-cleavage was 0.

Regarding UAACAGGGGACCACAGCAGAAGCGUUCACGUCGCAGCCCCCGCCAGAUUCUGGUGAAUCUGCGAAUUCUGCUGUAUGUCUC [G10A U41C U43C A77G], the self-cleavage is 0.05.

With UAACAGGGGACCACAGCAGAAGCGUUCACGUCGCAGCCUCAGUCAGAUUCUGGUGAAUCUGCGAAUUCUGCUUUAUAUCUC [G10A C39U U41A G73U], the self-cleavage turned out to be 0.14.

For UAACAGGGGACCACAGCAGAAGCGUUCACGUCGCAGCCCCUGUCAGAUACUGGUGGAUCUGCGAACUCUGCUGUAUAUCUC [G10A U49A A56G U66C], the self-cleavage stood at 0.03.

For the variant UAACAGGGGACCACAGCAGAAGCGUUCGCGUCGCAGCCCCUGUCAGAUUCUGGUGAAUCAGCGAAUUCUGCUGUAUAUCUC [G10A A28G U60A], the self-cleavage amounted to 0.06.

For UAACAGGGGACCACAGCAGAAGCGUCCACGUCGCAGCCCCUGUCAGAUUCUGGUGAAUCUGCGAAUUCUGCCGUAUAUCCC [G10A U26C U72C U80C], the self-cleavage was determined as 0.21.

Regarding UAACAGGGGACCACAGCAGAAGCGUUCACGUCGCAGCCCCUGUCAGAUACUGGUGGAUCUGCGAAUUCUGCUGUAUAUCUC [G10A U49A A56G], the self-cleavage was 0.25.

On to UAACAGGGGACCACAGCAGAAGCGAUCACGUCGCAGCCCCUGUCAGAUUCGGGUGAACCUGCGAAUUCUGCUGUUUAUCAC [G10A U25A U51G U58C A75U U80A], for which the self-cleavage is 0.05.

For UAACAGGGGACCACAGCAGAAGCGUUCACGUCGCGGCCCCUGUCAGAUUCUGGUGAAUCUGCGGAUUCUGCUGUAUAUCUC [G10A A35G A64G], the self-cleavage worked out at 0.72.

As to UAACAGGGGACCACAGCAGUAGCGUUCACGUCGCAGCCCCCGUCUGAUUCUGGUGAAUCUGCGAUUUCUGCUGUGUAUCUC [G10A A20U U41C A45U A65U A75G], the self-cleavage turned out to be 0.04.

Consider UAACAGGGGACCACAGCAGAAGCGUUCACGUCGCAGCCCCUGUCGGAUUCUCGUGAAUCUGCGAAUUCUGCUGUACAUCUC [G10A A45G G52C U76C], for which the self-cleavage is 0.11.

In the case of UAACAGGGGACCACAGCAGUAGCGUUCACGUCGCAGCACCUGUCAGAUUCUGGUGAAUCUGCGAACUCUGCUGUAUAUCUC [G10A A20U C38A U66C], the self-cleavage is 0.14.

On to UAACAGGGGACCACAGCAGAAGCGUCCACGUCGCGUCCCCUGUCAGAUUCUGGUGAAUCUGCGAAUUCAGCUGUAUAUCUC [G10A U26C A35G G36U U69A], for which the self-cleavage is 0.04.

Take UAACAGGGGACCACAGCAGAAGCGUUCACGUCACAGCCCCUGUCGGAUUCUGGUGAAUCUGCGAACUCUGCUGUAUAUCUC [G10A G33A A45G U66C]: the self-cleavage was 0.04.

UAACAGGGGACCACAGCAGAAGCGUUCACGUCGCAGCCCCUGUCCGAUUCUGGAGGAUCUGCGAGUUCUGCUGUAUAUCUC [G10A A45C U54A A56G A65G]: the self-cleavage was 0.08.

Take UAACAGGGGACCACAGCAGAAGCAUUCACGUCGCAGCCCCUGUCAGUUUCUGGUGGAUCUGCGAAUCCUGCUGUAUAUCAC [G10A G24A A47U A56G U67C U80A]: the self-cleavage was determined as 0.05.

As for UAACAGGGGACCACAGCAGAAGCGUGCACGUCGCAGCCCCUGUCGGAUUCUGGUGGAUCUGCGCAUUAUGCUGUAUAUCUC [G10A U26G A45G A56G A64C C68A], the self-cleavage came to 0.02.

Consider UAACAGGGGACCACAGCAGAAGCGUCCACGUCGCAGCCCCUGUCAGAUUCUGGUGAAUCCGCGAAUUCUGCUGUAUAUCUC [G10A U26C U60C], for which the self-cleavage stood at 0.06.

Consider UAACAGGGGACCACAGCAGAAGCGCUCAUGUCGCGGCCCCUGUCAGAUUCUGGUGGAUCUGCGAAUUCUGGCGUAUAUCUC [G10A U25C C29U A35G A56G C71G U72C], for which the self-cleavage was found to be 0.04.

For the variant UAACAGGGGACCACAGCAGAAGCGUUCACGUCGCAGCCCCAGUCAGAUUCUGGCGAAUCCGCGAAUUCUGCUGUAUAUCUC [G10A U41A U54C U60C], the self-cleavage amounted to 0.1.

As to UAACAGGGGACCACAGCAGAAGCGUCCUCGUCGCAGCCACAGUCAGACUCUGGUGAAUCUGCGAAUUCUGCUGUACAUCUC [G10A U26C A28U C39A U41A U48C U76C], the self-cleavage came out at 0.04.
